The source of these data is PMC6919601, “Identification of Plasmodium dipeptidyl aminopeptidase allosteric inhibitors by high throughput screening” (PLoS ONE, 2019).

Hit rate of the full screen: of about 110,000 compounds, about 230 (0.21%) showed an effect of 50% or more. Some of the results follow.
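Further: 30 min substrate incubation versus DMSO and 10 µM JCP410 controls.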

Chain of DPAP1 (Q8IIJ9 whole entry, looked up): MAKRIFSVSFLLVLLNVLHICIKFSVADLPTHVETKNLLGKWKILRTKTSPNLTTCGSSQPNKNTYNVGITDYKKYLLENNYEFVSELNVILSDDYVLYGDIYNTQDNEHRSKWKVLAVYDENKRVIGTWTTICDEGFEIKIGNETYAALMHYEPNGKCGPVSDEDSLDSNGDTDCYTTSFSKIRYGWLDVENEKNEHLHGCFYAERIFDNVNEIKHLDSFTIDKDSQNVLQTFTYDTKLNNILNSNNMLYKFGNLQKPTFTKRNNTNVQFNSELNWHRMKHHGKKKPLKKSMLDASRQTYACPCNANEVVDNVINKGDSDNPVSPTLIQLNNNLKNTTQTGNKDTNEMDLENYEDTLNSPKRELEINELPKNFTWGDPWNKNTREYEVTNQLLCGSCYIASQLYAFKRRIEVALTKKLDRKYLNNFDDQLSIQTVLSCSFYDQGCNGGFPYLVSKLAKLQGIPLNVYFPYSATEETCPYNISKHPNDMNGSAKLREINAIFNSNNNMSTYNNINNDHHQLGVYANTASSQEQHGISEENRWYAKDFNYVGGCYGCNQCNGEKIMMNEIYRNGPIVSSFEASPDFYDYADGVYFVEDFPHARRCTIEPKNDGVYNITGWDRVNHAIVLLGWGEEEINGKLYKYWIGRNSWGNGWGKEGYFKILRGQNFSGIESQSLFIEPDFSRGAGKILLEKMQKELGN

The assay has as its target DPAP1 (Plasmodium falciparum, UniProt Q8IIJ9). Nature of the assay: primary screen, percent inhibition; read by cleavage of a fluorogenic dipeptide substrate; higher = more effect of the substance. Set-up: species or system P. falciparum D10 trophozoite lysates; single well.
`O=C(c1ccc(Cl)cc1)N(Cc1ccc(Cl)cc1Cl)c1cccc(Cl)c1`: the “% Inhibition @ 10 uM” value is given as -2.51%. The value for `O=C(CNS(=O)(=O)c1ccc(Cl)cc1)Nc1ccc2c(c1)OCO2` was 0.196%; that for `C=CCNC(=O)CN(c1cc(C(F)(F)F)ccc1Cl)S(C)(=O)=O` was -0.105%; that for `O=C(O)c1ccc(NCc2ccc(Br)cc2)cc1` was -3.43%. As for `CCC(=O)N(CCc1ccc(OC)cc1)C1CC(=O)N(c2ccccc2)C1=O` (stereo not drawn), the “% Inhibition @ 10 uM” value is given as 1.34%. As for `O=C1C(=O)N2C(=C1C(=O)c1ccccc1)c1ccccc1CC21CCCC1`, the “% Inhibition @ 10 uM” value is reported as -3.09%. `CCCC(=O)Nc1ccc(C(=O)Nc2ccccc2C#N)cc1`: the “% Inhibition @ 10 uM” value turned out to be 0.316%. `Cc1nc2ccccc2c2oc(C(=O)NCCCN3CCc4ccccc4C3)cc12`: the “% Inhibition @ 10 uM” value is -3.45%. With `CC(C)(CC(=O)O)Cc1nc(-c2ccc(Cl)cc2)no1`, the “% Inhibition @ 10 uM” value is reported as -7.27%. In the case of `Cc1ccc(OCC(O)CN2CCN(Cc3ccccc3)CC2)c(C)c1` (stereo not drawn), the “% Inhibition @ 10 uM” value is listed as -5.1%. In the case of `COc1ccc(C2=NOC(C(=O)Nc3cc(C)on3)C2)cc1` (stereo not drawn) it was 3.2%. As for `Cc1oc(-c2ccccc2F)nc1CSc1nnc(C)n2c1cc1sccc12`, the “% Inhibition @ 10 uM” value is -4.99%. On to `CCCCn1c(=O)c(C(=O)Nc2cccc(C)c2C)c(O)c2ccccc21`, for which the “% Inhibition @ 10 uM” value stood at 6.98%.

As for `COc1ccc(-c2cc(-c3ccccc3)nc(Cl)n2)cc1OC`, the “% Inhibition @ 10 uM” value is on record as -1.5%. The value for `CCCc1nc2ccccc2c(=O)n1-c1ccc(O)cc1` was -6.44%; that for `Fc1ccccc1OCCCCCN1CCCC1` was -0.351%. In the case of `COc1cccc(-c2cc(C(=O)NCc3ccc(F)cc3)c3ccccc3n2)c1` it was -4.93%; in that of `CCc1ccc(-c2nc(CS(=O)CC(=O)O)c(C)o2)cc1` (stereo not drawn), 7.43%; in that of `O=C(NC1(C(F)(F)F)C(=O)Nc2c1c(=O)[nH]c(=O)n2-c1ccc(Cl)cc1)c1ccc(F)cc1` (stereo not drawn), 1.93%. Take `O=S(=O)(NC1CCCC1)c1ccc(S(=O)(=O)N2CCN(c3ncccn3)CC2)cc1`: the “% Inhibition @ 10 uM” value is reported as -8.61%. In the case of `COc1ccccc1C(=O)Nc1ccc(Cl)cc1` it was -1.16%.

Turning to `COc1ccc(-c2nc(CS(=O)CC(=O)NCCN3CCCCC3C)c(C)o2)cc1OC` (stereo not drawn), the “% Inhibition @ 10 uM” value is given as -3.7%. In the case of `CCOC(=O)C1=C(C)N=C(C)/C(=C(/O)OCC)C1c1cccs1` (stereo not drawn) it was 2.16%; in that of `COc1ccc(Br)cc1CNC(=O)CN1C(=O)CSc2ncccc21`, -1.6%. In the case of `COc1ccc(C(=O)N(Cc2nc(-c3ccc(C)cc3)no2)C(C)C)c(OC)c1` it was -6.89%; in that of `COC(=O)N1c2ccccc2Sc2ccccc21`, 9.66%; in that of `NC(=O)C1(N2CCCCC2)CCN(C(=O)c2ccc3c(c2)OCO3)CC1`, 2.08%. In the case of `CCOc1cc(Br)c(Br)c(C=O)c1O` it was -4.27%; in that of `O=S1(=O)CCC(SCc2ccccc2)C1` (stereo not drawn), -1.29%. `Cc1cc(Cl)nc(Cl)c1C(=O)Nc1ccccc1F`: the “% Inhibition @ 10 uM” value amounted to 3.29%. The value for `CC(Oc1ccc(C(=O)NCCc2ccccc2)cc1)C(=O)O` (stereo not drawn) was -0.425%; that for `CCOc1ccc(N2C(=O)C(C)SC23C(=O)N(CN2CCOCC2)c2ccccc23)cc1` (stereo not drawn) was 12.5%; that for `CC(C)CN1Cc2cccc(C(=O)O)c2C1=O` was 3.88%.

`Cc1ccc(OC(C)C(=O)Nc2ccc3ccccc3c2)cc1` (stereo not drawn): the “% Inhibition @ 10 uM” value was 2.48%. Consider `CC1CN(CC(O)COc2ccc(C(C)(C)C)cc2)CC(C)O1` (stereo not drawn), for which the “% Inhibition @ 10 uM” value was -2.34%.

Consider `Cc1ccc(S(=O)(=O)c2nnn3c2nc(NC2CCCCC2C)c2ccccc23)cc1` (stereo not drawn), for which the “% Inhibition @ 10 uM” value is -8.82%. As for `CCOc1ccccc1CNc1ccc(N2CCN(C(C)=O)CC2)cc1`, the “% Inhibition @ 10 uM” value is -2.29%. In the case of `CCN(CC)CCNC(=O)c1cnn(-c2ccc(F)cc2)c1C1CCN(C(=O)OC(C)(C)C)CC1` it was 4.11%; in that of `Cc1c(CNCCc2cccs2)c(C(=O)O)c(C)n1Cc1ccc(F)cc1`, -0.23%. The value for `CS(=O)(=O)C1=NN2C(=N)/C(=C\c3c[nH]c4ccccc34)C(=O)N=C2S1` was -3.39%; that for `Clc1ccc(C(NC2CCN(Cc3ccccc3)CC2)c2ccccc2)cc1` (stereo not drawn) was -5.2%. `COc1ccc(NS(=O)(=O)c2ccc(NC(=O)COc3ccc(Cl)cc3C)cc2)cc1`: the “% Inhibition @ 10 uM” value is -0.992%. The value for `COc1ccc(C(=O)c2cnc3cc4c(cc3c2N2CCCCC2)OCO4)cc1` was -6.77%. As to `CCc1ccc(Oc2nc3c(C)cccn3c(=O)c2/C=C(\C#N)C(=O)N2CCOCC2)cc1`, the “% Inhibition @ 10 uM” value was found to be 0.315%. In the case of `CCOC(=O)c1oc2cc(O)ccc2c(=O)c1-c1ccc2c(c1)OCCO2` it was 3.93%; in that of `CCCn1c(=N)c(C(=O)NCCc2ccccc2)cc2c(=O)n3cc(C)ccc3nc21`, 1.76%. As to `CCC1CCCCN1Cc1c(C)nc2ccc(C)cc2c1O` (stereo not drawn), the “% Inhibition @ 10 uM” value is given as -4%. As for `Cc1ccc(-n2nc(C)c(/C=N/c3sc4c(c3C#N)CCC4)c2O)cc1`, the “% Inhibition @ 10 uM” value worked out at 0.674%. Regarding `CC(CCCC(C)(C)O)NC1CCN(Cc2ccccc2)CC1` (stereo not drawn), the “% Inhibition @ 10 uM” value stood at 1.43%. In the case of `COc1cccc(NC(=O)CN(c2cc(Cl)ccc2OC)S(C)(=O)=O)c1` it was -0.185%; in that of `COc1ccc(-c2noc(N3CCC(C(=O)NCCN4CCc5ccccc5C4)CC3)n2)cc1`, 9.11%. The value for `COc1cc(OC)cc(C(=O)NCc2ccc(-n3cccc3)cc2)c1` was -0.403%; that for `CN(C)S(=O)(=O)c1ccc(S(=O)(=O)N(Cc2ccc(Cl)cc2)Cc2ccco2)cc1` was -5.15%; that for `COc1ccc(N(C(C)C(=O)Nc2cccc(Br)c2)S(C)(=O)=O)cc1` (stereo not drawn) was 0.793%.

Take `O=C1Oc2ccccc2C(=O)/C1=C(O)/C=C/c1c[nH]c2ccccc12`: the “% Inhibition @ 10 uM” value is given as -6.91%. Take `CSC1=NSC2=NC(=O)/C(=C\c3ccc(C)o3)C(=N)N12`: the “% Inhibition @ 10 uM” value is 0.8%. The value for `CCn1c(C)nc2cc(S(=O)(=O)N3CCCC3)ccc21` was -0.415%.

For the molecule `Cc1ccc(S(=O)(=O)NCCc2ccc3c(c2)OCO3)cc1`, the “% Inhibition @ 10 uM” value was 3.53%. The value for `O=C(O)c1cccnc1Oc1ccc2c(c1)OCO2` was -0.631%; that for `COc1ccc(CCNC(=O)OC(C)(C)C)cc1OC` was -1.38%. In the case of `Cc1nc2c(c(C)c1CCC(=O)N1CCN(C3CCCCC3)CC1)c(=O)n(C)c(=O)n2C` it was 52.7%. In the case of `COc1cc(/C=C(\C#N)c2nn(CCO)c(N)c2C#N)ccc1OS(=O)(=O)c1ccc(F)cc1` it was 19.3%.

For `CCCNC(=O)c1cc(C)nc2c1c(C)nn2-c1ccc(C)cc1`, the “% Inhibition @ 10 uM” value is recorded as -1.97%. In the case of `O=C1c2ccccc2C(=O)N1Cc1ccc2ccnc(Oc3ccccc3)c2c1` it was 3.96%; in that of `COc1ccc(NS(=O)(=O)c2ccc(Cl)cc2)cc1`, -0.0404%; in that of `CS(=O)(=O)N(Cc1ccc(Cl)cc1)c1ccc(C(=O)NCCc2ccccc2)cc1`, -3.09%. For `Cc1ccccc1NC(=O)CC1Sc2ccccc2NC1=O` (stereo not drawn), the “% Inhibition @ 10 uM” value is on record as -8.66%. For `Cc1nn(C(F)F)c(C)c1C(=O)Nc1ccc(CN2CCCCC2)cc1`, the “% Inhibition @ 10 uM” value is on record as -3.18%. For the molecule `COc1ccc(C2CC(C(F)(F)F)n3nc(C(=O)NCCN4CCOCC4)cc3N2)cc1` (stereo not drawn), the “% Inhibition @ 10 uM” value stood at 6.05%.

For `CCOC(=O)c1c(NC(=O)/C=C/c2ccccc2)sc(C(C)=O)c1C`, the “% Inhibition @ 10 uM” value is listed as 20.3%. In the case of `O=C(NCCc1nc2ccccc2[nH]1)c1ccccc1` it was -6.82%.

`COc1ccc2ncc(C(=O)O)c(O)c2c1`: the “% Inhibition @ 10 uM” value is -2.48%. In the case of `Clc1ccccc1C1N(Cc2ccccc2)CCN1Cc1ccccc1` it was -0.233%. With `Cc1cc(=O)n(C)c(=O)n1Cc1ccccc1C#N`, the “% Inhibition @ 10 uM” value is on record as -0.222%. In the case of `O=C1NC(=O)c2c1cc1c3c2C2C=CCC2CN3CC2CC=CC12` (stereo not drawn) it was 64.9%. The value for `CCC(=O)Nc1nc(C)nc(C)c1C(C)=O` was -3.64%; that for `N#CC1=C(N)Oc2c(cc(Cl)c3ccccc23)C1c1ccc(Cl)c(Cl)c1` (stereo not drawn) was 6.06%. As for `O=C(Nc1ccc([N+](=O)[O-])cc1)c1cccc(S(=O)(=O)Nc2ccccc2)c1`, the “% Inhibition @ 10 uM” value came out at 1.64%. The value for `COc1ccc(Br)cc1C1N(c2nccs2)C(=O)C2CCCN21` (stereo not drawn) was 4.51%; that for `Cc1ccn2c(C=O)c(-c3ccc(F)cc3)c(C=O)c2c1` was -3.04%. The value for `Cc1c(C(=O)NCCN2CCN(Cc3ccccc3)CC2)oc2ccccc12` was -2.77%; that for `Cc1ccc(C)c(Oc2nc3c(c(=O)n(C)c(=O)n3C)n2Cc2ccc(F)cc2)c1` was -1.47%.

Regarding `O=C(Nc1ccc(N2CCOCC2)cc1)c1nc2ccccc2s1`, the “% Inhibition @ 10 uM” value came to 0.323%. In the case of `COc1cccc(NC(=O)Cn2nc(C(F)(F)F)cc2C2CC2)c1` it was -3.18%; in that of `CCC(NC(=O)[C@H](CC1CCCCC1)/N=C(\NS(C)(=O)=O)N1CCOCC1)C(=O)c1nc2ccccc2o1` (stereo partly drawn), 0.079%; in that of `CCC(C)N1C(=O)S/C(=C/c2cn(C)c3ccccc23)C1=O` (stereo not drawn), 1.28%. For `c1cc(-c2cccs2)nc(-c2cccs2)c1`, the “% Inhibition @ 10 uM” value is listed as -5.98%. As for `COc1ccc(NC(=O)c2cccc(S(=O)(=O)Nc3cccc(C(=O)O)c3)c2)cc1`, the “% Inhibition @ 10 uM” value is -3.52%.

Consider `CC(C)CC(C(=O)NCC#N)n1cnc2c(N3CCN(C)CC3)ncnc21` (stereo not drawn), for which the “% Inhibition @ 10 uM” value stood at 3.19%. The value for `Cc1ccc(S(=O)(=O)N(CC(=O)NCc2ccccc2)c2ccc(F)cc2)cc1` was 0.323%; that for `Cc1cc(C)c(C(=O)Nc2ccc(C)c([N+](=O)[O-])c2)c(C)c1` was -0.902%; that for `Cc1ccc(CN2CCC(CNC(=O)Nc3cn(CC(C)C)c(=O)c4ccccc34)C2)cc1` (stereo not drawn) was -0.705%. Take `Cc1ccc(-n2ncc3c(=O)n(Cc4cccc(F)c4)cnc32)cc1C`: the “% Inhibition @ 10 uM” value was -3.53%. For `O=C(COc1ccccc1Cl)Nc1ccc(S(=O)(=O)N2CCCCC2)cc1`, the “% Inhibition @ 10 uM” value was -6.17%. Regarding `CC(C)C[C@H](NC(=O)c1cncc(Br)c1)C(=O)NCC#N`, the “% Inhibition @ 10 uM” value is -5.2%. With `CCCCCCSc1nc(O)c(CC)c(=O)n1-c1ccccc1`, the “% Inhibition @ 10 uM” value turned out to be 0.827%.

On to `CNc1oc(-c2ccccc2)nc1C#N`, for which the “% Inhibition @ 10 uM” value is reported as 1.27%.

`c1ccc(CSc2ccc(-c3cccs3)nn2)nc1`: the “% Inhibition @ 10 uM” value was found to be 1.95%. For `O=C(C1CCC(CNc2c(N3CCCC3)c(=O)c2=O)CC1)N1CCN(c2ncccn2)CC1` (stereo not drawn), the “% Inhibition @ 10 uM” value was 40.1%.
